# Test results published in PubChem BioAssay AID602310 (National Center for Advancing Translational Sciences (NCATS), 2012).
# Hit rate of the full screen: of about 410,000 compounds, about 310 (0.076%) were called active. This list was built around the results that the source calls inconclusive (neither active nor inactive); the mix of calls is not that of the screen. Calls come from the whole dose curve; as a rule, active = well fitted curve in the direction sought with a large enough effect; inconclusive = small, poorly fitted or top-dose-only effect; inactive = flat fitted curve, though single readings scatter. Where the call is inconclusive, the potency comes from a doubtful curve fit.
# Biological target: DNA dC->dU-editing enzyme APOBEC-3G (Homo sapiens) (UniProt Q9HC16)
# Sequence of UniProt Q9HC16 (Q9HC16 whole entry, looked up): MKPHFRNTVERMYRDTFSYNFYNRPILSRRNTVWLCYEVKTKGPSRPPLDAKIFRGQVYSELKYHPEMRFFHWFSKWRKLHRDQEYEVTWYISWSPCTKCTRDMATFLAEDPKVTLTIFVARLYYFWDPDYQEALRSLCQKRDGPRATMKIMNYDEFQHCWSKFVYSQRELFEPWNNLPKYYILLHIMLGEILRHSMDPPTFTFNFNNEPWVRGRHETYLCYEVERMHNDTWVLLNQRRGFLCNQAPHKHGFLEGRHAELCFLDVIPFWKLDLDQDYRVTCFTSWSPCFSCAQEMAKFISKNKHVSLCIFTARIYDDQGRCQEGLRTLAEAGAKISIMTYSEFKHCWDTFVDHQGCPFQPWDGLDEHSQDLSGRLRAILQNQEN
# Experiment: qHTS for Inhibitors of Vif-A3G Interactions: qHTS; note: nearly all actives have a fitted effect of over 60% in size;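 for activity, negative = active: hits raise eYFP signal because A3G escapes Vif-driven loss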
# Details: HeLa A3G-eYFP + Vif (tagged APOBEC3G with the HIV-1 protein that degrades it), YFP fluorescence, overnight; series mostly up to 46.1 µM; activity, negative = active: at the top concentration
# Procedure, shortened: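 HeLa cells stably expressing Vif and C-terminally eYFP-tagged A3G, seeded overnight at 37 deg C, then exposed to compound by pintool overnight at 37 deg C. Rise in yellow fluorescence (Ex 488/Em 500-530, Acumen) marks blocked Vif-driven A3G degradation.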
# % is set by controls: 0 for no effect and ±100 for the full control effect; potency is the fitted concentration of half-maximal effect; tags give direction and shape of the fitted curve.
SMILES,Potency,"activity, negative = active"
CC(C)NC(=O)N(C)C[C@@H]1Oc2ccc(NC(=O)Nc3ccc(C(F)(F)F)cc3)cc2CC(=O)N([C@H](C)CO)C[C@@H]1C,"inconclusive: 35.5 µM [inhibitor, single point]",–
CNc1ncc(-c2nnnn2-c2ccccc2)c(-c2ccccc2)n1,"inconclusive: 25.1 µM [inhibitor, single point]",–
CCCc1nc2c3ccccc3ccn2c1Cc1cccc(F)c1,"inconclusive: 35.5 µM [inhibitor, single point]",–
Cc1ccc(NN=C2c3ccccc3-c3ccccc32)cc1,"inconclusive: 35.5 µM [inhibitor, single point]",–
CC(C)CC(N)c1csc(Nc2cc(Oc3ccccc3)ncn2)n1 (centres undefined),–,inactive: -1.71%
Cc1noc(C)c1COc1cccc(C(=O)Nc2ccc3c(c2)OCO3)c1,"inconclusive: 25.1 µM [inhibitor, single point]",–
O=S1(=O)C2CC3OC2(CC3c2ccc(F)cc2)CN1Cc1ccc(Cl)cc1 (centres undefined),–,inactive: -0.732%
CN(C)C(CNC(=O)c1cc(S(=O)(=O)N(C)c2ccc(F)cc2)ccc1Cl)c1ccco1 (centres undefined),–,inactive: 0.385%
COc1ccc(CNC(=O)Cc2ccc(-c3ccccc3)cc2)cc1OC,"inconclusive: 7.08 µM [inhibitor, partial curve, poor fit]",–
COc1ccc(S(=O)(=O)N2CCCN(CC(=O)Nc3cc(NC(C)=O)ccc3OC)CC2)cc1,–,inactive: 5.28%
O=C(N/N=C/c1ccc2c(c1)OCO2)c1ccc(Cl)cc1Cl,"inconclusive: 35.5 µM [inhibitor, single point]",–
Cc1sc(NC(=O)c2sc3nc4c(C)cccc4cc3c2N)c(C#N)c1C,"inconclusive: 15.8 µM [inhibitor, partial curve, poor fit]",–
N#Cc1ccc(/C=C\c2nccc3c2[nH]c2ccccc23)cc1,active: 12.6 µM,–
COc1ccc(OC)c(Nc2nc(-c3ccncc3)nc3ccccc23)c1,"inconclusive: 5.62 µM [inhibitor, partial curve, poor fit]",–
COc1cc(OC)cc(-c2c(-c3cccs3)c3cc(-c4cnc(N)nc4)ccc3n2C)c1,"inconclusive: 25.1 µM [inhibitor, single point]",–
COc1cc(O)ccc1-c1nc2cc(C)ccn2c1Nc1ccccc1C,"inconclusive: 25.1 µM [inhibitor, single point]",–
CC(C)(O)C1Cc2cc(/C=C/C(=O)O)c(O)cc2O1 (centres undefined),"inconclusive: 22.4 µM [inhibitor, single point]",–
Cc1ccc(NC(=O)CCc2c(C)nc3ncnn3c2C)cc1Cl,–,inactive: 3.23%
Fc1ccc(C[n+]2csc3ccccc32)cc1,–,inactive: -1.26%
CCc1ccccc1Nc1nc2ccccc2[nH]1,"inconclusive: 28.2 µM [inhibitor, single point]",–
CCN1c2ccccc2-c2nc(SCC(=O)Nc3c(C)cc(C)cc3C)ncc2S1(=O)=O,"inconclusive: 1.41 µM [inhibitor, full curve, poor fit]",–
CSc1ccc(/C=C(/NC(=O)c2ccco2)C(=O)N2CCCCC2)cc1,–,inactive: -1.1%

SMILES,Potency,"activity, negative = active"
Cc1cc(Cl)c2oc(C(=O)N3CCN(c4ccncc4)CC3)c(C)c2c1,–,inactive: -13.2%
CCN1/C(=C/C(=O)c2ccco2)Sc2ccccc21,"inconclusive: 11.2 µM [inhibitor, partial curve, poor fit]",–
Cc1ccc([N+](=O)[O-])cc1-c1ccc(/C=C(\C#N)c2[nH]nc(N)c2C#N)o1,"inconclusive: 14.1 µM [inhibitor, partial curve, poor fit]",–
COC(=O)c1ccc(NC(=O)c2cc(-c3ccncc3)nc3ccccc23)cc1,"inconclusive: 15.8 µM [inhibitor, single point]",–
OCC1OC(n2cnc3c(NO)ncnc32)C(O)C1O (centres undefined),–,inactive: -7.93%
COc1ccc(N2CC(C(=O)N/N=C/c3ccc(C)cc3)CC2=O)cc1 (centres undefined),"inconclusive: 2 µM [inhibitor, full curve, poor fit]",–
CSc1nsc(/C=C/Nc2ccc(C)c(C)c2)c1C#N,–,inactive: -30.5%
COc1cccc(-c2cc(NC=O)c3ncc(-c4ccc(OC)c(OC)c4)n3c2)c1,"inconclusive: 1.41 µM [inhibitor, partial curve, poor fit]",–
Cc1nc([N+](=O)[O-])c(Br)n1CC(=O)c1cccc([N+](=O)[O-])c1,"inconclusive: 12.6 µM [inhibitor, single point]",–
Cc1cc(C(=O)N/N=C/c2ccc3c(c2)OCO3)c2ccccc2n1,"inconclusive: 7.08 µM [inhibitor, partial curve]",–
O=C(N/N=C/c1ccc(Cl)cc1)c1ccc2c(c1)OCO2,"inconclusive: 1 µM [inhibitor, full curve, poor fit]",–
Cc1c(CCCl)c(Cl)n2c(nc3ccccc32)c1C#N,"inconclusive: 7.94 µM [inhibitor, partial curve, poor fit]",–
Cc1c(C(=O)OC2CCCCC2)[nH]c2c1C(=O)CC(c1ccccc1Cl)C2 (centres undefined),"inconclusive: 1.26 µM [inhibitor, full curve, poor fit]",–
Cc1nn(-c2ccccc2)c(Cl)c1C1C(C#N)=C(N)OC2=C1C(=O)CC(C)(C)C2 (centres undefined),"inconclusive: 10 µM [inhibitor, partial curve, poor fit]",–
CCOc1ccccc1N(C(=O)c1snc(C(N)=O)c1N)C(C(=O)NCc1ccccc1)c1ccc(O)cc1 (centres undefined),–,inactive: -6.27%
COc1ccc(C2=Nn3c(nnc3-c3ccccc3F)SC2)cc1OC1CCOC1 (centres undefined),"inconclusive: 3.98 µM [inhibitor, partial curve, poor fit]",–
Cc1oc(=O)c(NC(=O)c2ccccc2)cc1C(=O)c1ccccc1,"inconclusive: 35.5 µM [inhibitor, single point]",–
Cc1ccsc1C(=O)N1CCCC(N2CCN(c3cccc(Cl)c3)CC2)C1 (centres undefined),–,inactive: 2.42%
COc1ccc(SCC(Cc2ccccc2)N2CCN(CC(C)C)CCC2=O)cc1 (centres undefined),"inconclusive: 20 µM [inhibitor, single point]",–
CN(C)CCNC(=O)c1cccc(-c2cnc3c(NC=O)cc(-c4ccc(F)cc4)cn23)c1,"inconclusive: 35.5 µM [inhibitor, single point]",–
COc1ccc(C(C(=O)NC2CCCC2)N(C(=O)c2snc(-c3ccc(F)cc3)c2N)c2ccc(F)cc2)cc1 (centres undefined),–,inactive: -4.9%
COc1ccccc1/C=C/C=C1\Oc2c(ccc(O)c2CN2CCN(CCO)CC2)C1=O,"inconclusive: 35.5 µM [inhibitor, single point]",–

SMILES,Potency,"activity, negative = active"
O=C(Nc1ccccc1-c1nc2ccccc2[nH]1)c1ccc(N2C(=O)CCC2=O)cc1,"inconclusive: 17.8 µM [inhibitor, partial curve, poor fit]",–
Nc1n[nH]c(N)c1N=Nc1cccc(C(F)(F)F)c1,"inconclusive: 31.6 µM [inhibitor, single point]",–
Nc1c(N(CCC2=CCCCC2)C(=O)c2ccccc2F)c(=O)[nH]c(=O)n1Cc1ccccc1,"inconclusive: 35.5 µM [inhibitor, single point]",–
CC1C/C(=C/c2ccccn2)C(=O)/C(=C/c2ccccn2)C1 (centres undefined),"inconclusive: 0.562 µM [inhibitor, partial curve, poor fit]",–
O=C(NCc1ccco1)c1cccc2c1C(=O)c1ccc(N3CCC(Cc4ccccc4)CC3)cc1S2(=O)=O,"inconclusive: 15.8 µM [inhibitor, partial curve, poor fit]",–
CCC/C(O)=C1\C(=O)CC(C)(C)CC1=Nc1ccc(OC)cc1OC,"inconclusive: 1.58 µM [inhibitor, partial curve, poor fit]",–
COc1ccc(CC(N)c2csc(Nc3cc(NCCCO)ncn3)n2)cc1 (centres undefined),–,inactive: -4.48%
N#CC1=C(N)SC(N)=C(C#N)C1c1cccc(Oc2ccccc2)c1,"inconclusive: 22.4 µM [inhibitor, single point]",–
C=CCSc1nc(C)c(CC(=C)C)c(=O)[nH]1,–,inactive: 1.74%
C=CCN(c1ccccc1)S(=O)(=O)c1cccc(C(=O)NCC(c2ccccc2OC)N2CCCC2)c1 (centres undefined),"inconclusive: 25.1 µM [inhibitor, single point]",–
COc1cc2c(cc1OC)C(C)N(C(=O)c1c(C)noc1C)CC2 (centres undefined),"inconclusive: 12.6 µM [inhibitor, single point]",–
O=c1[nH]c(=S)[nH]c2scc(-c3ccc(Br)cc3)c12,–,inactive: -0.127%
Nc1nn(-c2ccccc2)c(N)c1N=Nc1ccccc1,"inconclusive: 6.31 µM [inhibitor, full curve]",–
COc1cc2cc(/C=C/C(=O)c3ccco3)c(Cl)nc2cc1OC,"inconclusive: 12.6 µM [inhibitor, single point]",–
CCN1C(=O)[C@H]2[C@@H](c3ccc(-c4ccc(F)cc4)cc3)N[C@@](Cc3ccccc3)(C(=O)OC)[C@H]2C1=O,"inconclusive: 17.8 µM [inhibitor, single point]",–
COc1ccc2nc(NC(=O)c3nc(S(=O)(=O)Cc4ccccc4F)ncc3Cl)sc2c1,"inconclusive: 25.1 µM [inhibitor, single point]",–
COc1ccc(C2C(C(=O)c3ccccc3)N3c4ccccc4C=CC3C2[N+](=O)[O-])cc1 (centres undefined),"inconclusive: 11.2 µM [inhibitor, partial curve, poor fit]",–
COc1ccc(OC)c(/C=C/C(=O)N2C(=O)c3cccc(N)c3C2=O)c1,"inconclusive: 25.1 µM [inhibitor, single point]",–
C=C1c2nc3ccccc3n2C=C(c2ccc(C)cc2)N1c1ccccc1,"inconclusive: 3.16 µM [inhibitor, full curve]",–
Cc1ccc(-c2csc(NC(=O)Cn3cnc4c3c(=O)n(C)c(=O)n4C)n2)cc1C,–,inactive: 0.837%
